86 compounds from PMC4336329 (PLoS ONE, 2015) can be followed below.

The structures appear in SMILES notation. The campaign covered roughly 310,000 compounds. About 14,000 (4.5%) showed an effect of 50% or more. Effects have a minus sign here. This is one part of the list.
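Note: peak tail current of the secondary pulse compared with the same well before compound.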

The target of the experiment is human ether-à-go-go-related gene (hERG) potassium channel (human, UniProt Q12809). In words: primary screen, population patch clamp on CHO cells stably expressing hERG.
Chain of human ether-à-go-go-related gene (hERG) potassium channel (Q12809 whole entry, looked up): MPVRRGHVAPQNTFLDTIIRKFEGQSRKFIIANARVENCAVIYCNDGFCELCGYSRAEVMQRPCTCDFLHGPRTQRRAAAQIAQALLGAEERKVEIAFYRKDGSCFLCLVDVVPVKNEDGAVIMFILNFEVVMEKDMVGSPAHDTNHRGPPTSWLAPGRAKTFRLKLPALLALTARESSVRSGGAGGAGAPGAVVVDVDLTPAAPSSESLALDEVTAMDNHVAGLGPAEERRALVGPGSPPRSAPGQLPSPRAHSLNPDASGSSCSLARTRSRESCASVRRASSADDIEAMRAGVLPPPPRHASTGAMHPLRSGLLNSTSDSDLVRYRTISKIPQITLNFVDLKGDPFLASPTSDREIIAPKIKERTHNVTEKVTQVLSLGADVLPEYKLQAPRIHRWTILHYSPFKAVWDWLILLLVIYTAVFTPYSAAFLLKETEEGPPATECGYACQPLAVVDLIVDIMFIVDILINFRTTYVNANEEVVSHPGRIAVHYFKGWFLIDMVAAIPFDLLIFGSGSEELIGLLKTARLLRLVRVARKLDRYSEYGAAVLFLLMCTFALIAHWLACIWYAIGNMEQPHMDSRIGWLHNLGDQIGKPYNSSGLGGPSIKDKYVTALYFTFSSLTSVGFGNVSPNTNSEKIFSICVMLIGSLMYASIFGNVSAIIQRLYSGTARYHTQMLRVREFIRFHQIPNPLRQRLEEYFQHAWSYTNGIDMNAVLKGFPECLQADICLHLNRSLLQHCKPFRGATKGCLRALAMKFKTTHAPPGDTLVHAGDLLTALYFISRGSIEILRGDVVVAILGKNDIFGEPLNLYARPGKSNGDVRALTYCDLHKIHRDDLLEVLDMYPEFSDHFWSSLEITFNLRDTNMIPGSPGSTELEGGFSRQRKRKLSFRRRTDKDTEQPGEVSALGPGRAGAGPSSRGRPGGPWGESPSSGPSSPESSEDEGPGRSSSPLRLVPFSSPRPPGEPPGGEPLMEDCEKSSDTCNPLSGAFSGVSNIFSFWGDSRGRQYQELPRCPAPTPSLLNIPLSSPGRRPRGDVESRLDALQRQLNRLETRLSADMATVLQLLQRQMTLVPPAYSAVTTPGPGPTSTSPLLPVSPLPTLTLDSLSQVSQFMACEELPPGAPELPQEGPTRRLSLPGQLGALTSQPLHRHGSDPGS
On to `Cc1ccccc1CC(=O)Nc1ccc(S(=O)(=O)N2CCN(C)CC2)cc1`, for which the “hERG current change (%, negative = inhibition) at 10uM” value is -6.26%.
The result for `COc1ccc(N(CC(=O)Nc2cc(Cl)ccc2C)S(=O)(=O)c2c(C)n[nH]c2C)cc1` reads 4.8%; that for `O=C(Nc1cccc2oc(=O)ccc12)c1ccc([N+](=O)[O-])cc1[N+](=O)[O-]`, -59.9%.
The result for `COc1ccc(CN2C(=O)c3cccnc3C2=O)cc1S(=O)(=O)N(C)Cc1ccco1` reads -13.3%.
Regarding `CC(=O)N1C(C(=O)O)Cc2c([nH]c3ccccc23)C1(C)C` (centres unmarked), the “hERG current change (%, negative = inhibition) at 10uM” value was determined as 17%.
The figure for `COc1ccc(-c2n[nH]c(C)c2-c2ccc(Cl)cc2)c(O)c1OC` is 14.5%; for `CC1CCCC(NC(=O)COC(=O)/C=C/c2ccc3c(c2)OCO3)C1C` (centres unmarked) it is -2.03%.
The figure for `O=C(CN1CCCCCC1)N/N=C/c1cccc(Cl)c1` is -37.5%.
The result for `COc1ccccc1N(CC(=O)Nc1ccccc1C(=O)N1CCOCC1)S(C)(=O)=O` reads 15.6%; that for `CC(=O)O.Cc1ccc(OCCCSc2n[nH]c(N)n2)cc1`, 10.9%.
With `Cn1c(=O)c(C(=O)CN2CCCCC2)c(N)n(Cc2ccccc2)c1=O`, the “hERG current change (%, negative = inhibition) at 10uM” value is -22%.
The figure for `CCOC(=O)C1(CCOc2ccccc2)CCN(Cc2ccc(O)cc2)CC1` is -85.1%.
With `CN(C)Cc1c(O)c(Cl)cc2c3c(c(=O)oc12)CCCC3`, the “hERG current change (%, negative = inhibition) at 10uM” value was determined as 5.69%.
Consider `CCCCNC(=O)CSc1nnc(Cc2ccccc2)n1CC`, for which the “hERG current change (%, negative = inhibition) at 10uM” value is recorded as -1.33%.
The figure for `COc1ccc2[nH]c3c(c2c1)CCN1C(=O)N([C@@H](C)C(=O)NCc2ccccc2OC)C(=O)[C@]31C` is -17.2%; for `Cc1cccc(N2C(=O)CC(c3ccc(F)cc3)C3=C2COC3=O)c1` (centres unmarked) it is -16.6%; for `O=S(=O)(c1ccc(SCc2ccccc2)nc1)N1CCCCC1` it is 4.03%.
The figure for `COC(=O)C1=C(C)NC(=O)/C1=C\c1cc(C)n(-c2cc(C)cc(C)c2)c1C` is 10.1%; for `CCCCN1CC(=O)N2[C@H](c3ccc(OC)cc3)[C@@H]3C(=O)N(CC)C(=O)[C@@H]3[C@]2(C)C1=O` it is -2.88%; for `CCCC(c1nnnn1Cc1ccco1)N1CCN(C(=O)c2ccco2)CC1.Cl` (centres unmarked) it is -11.8%.
The result for `S=c1[nH]c2ccc3ccccc3c2[nH]1` reads 5.22%; that for `COc1cc([C@@H]2CC=C(C(=O)O)[C@H](c3cccc(Cl)c3)N2S(=O)(=O)c2ccc(C)cc2)cc(OC)c1OC`, 32.9%; that for `N#CCCn1nc(-c2ccc(Br)cc2)cc1Nc1ccccc1NC(=O)C(F)(F)F`, -17%.
Consider `Cn1ncc2c(=O)[nH]cnc21`, for which the “hERG current change (%, negative = inhibition) at 10uM” value is listed as 15.9%.
As to `Brc1ccc(CNc2nc3ccccc3n2CCN2CCCCC2)cc1`, the “hERG current change (%, negative = inhibition) at 10uM” value is -62.7%.
As for `CC(=O)c1cccc(NC(=O)Nc2ccc(C(=O)N3CCCC3)cc2)c1`, the “hERG current change (%, negative = inhibition) at 10uM” value came to 3.52%.
With `CCOC(=O)N/N=C(/C)c1ccc([N+](=O)[O-])o1`, the “hERG current change (%, negative = inhibition) at 10uM” value is on record as -25.4%.
In the case of `CCOc1c2ccc(C(=O)NCc3ccc(C(F)(F)F)cc3C(F)(F)F)cc2nn1C`, the “hERG current change (%, negative = inhibition) at 10uM” value is -7.59%.
In the case of `CCOC(=O)CSc1ccc2nnc(-c3cccs3)n2n1`, the “hERG current change (%, negative = inhibition) at 10uM” value is listed as -51.2%.
The figure for `C/C(=N\NC(=O)c1cc(C)oc1C)c1ccc(N2CCOCC2)cc1` is 7.89%.
Take `COc1ccc(O)c(C(=O)c2cc(C#N)c(=O)n(-c3c(C)n(C)n(-c4ccccc4)c3=O)c2)c1`: the “hERG current change (%, negative = inhibition) at 10uM” value is -2.47%.
The result for `COc1cc(CCC(=O)OCC(N)=O)cc(OC)c1OC` reads -1.21%; that for `O=C(COc1ccc([N+](=O)[O-])cc1)NNC(=O)Nc1ccccc1F`, -0.769%; that for `Cn1c(SCC(=O)Nc2ccc(N3CCOCC3)cc2)nnc1-c1ccco1`, 6.01%.
The figure for `CN1C(=O)C(CC(=O)N2CCN(C(c3ccccc3)c3ccccc3)CC2)N(C)C1=O` (centres unmarked) is -0.215%.
The result for `COc1cccc(N2C(=O)CC(N3CCN(CCN=CC4=C(O)CC(C)(C)CC4=O)CC3)C2=O)c1` (centres unmarked) reads 8.67%; that for `Cc1cccc(NC(=O)CCC(=O)OCc2ccc(Br)cc2)c1`, -7.05%.
On to `O=C(COc1ccccc1)Nc1ccc(S(=O)(=O)Nc2ccccn2)cc1`, for which the “hERG current change (%, negative = inhibition) at 10uM” value was -14.4%.
Turning to `COc1ccc2c(c1)c(C(=O)CN1CCC3(CC1)OCCO3)c(C)n2Cc1ccccc1`, the “hERG current change (%, negative = inhibition) at 10uM” value is -53%.
The result for `Cc1cnc(C(=O)OCc2ccc(COC(=O)c3cnc(C)cn3)cc2)cn1` reads 30.7%; that for `CC(C)[N+](C)(CCOC(=O)C1c2ccccc2Oc2ccccc21)C(C)C.[Br-]`, 8.11%; that for `Cc1ccc(CN(C)CCc2ccccn2)cc1`, -41.1%.
The figure for `O=C1CC(N2CCSCC2)C(=O)N1c1cccc(Br)c1` (centres unmarked) is -3.54%.
The figure for `CC(C)Nc1nc(N(c2ccccc2)c2ccccc2)nc(-n2ccnc2)n1` is 21.3%; for `CC1CCc2nc(N)c(C#N)c(-c3ccncc3)c2C1` (centres unmarked) it is 11.5%; for `O=C(COC(=O)c1ccc2c(c1)OCO2)Nc1nc(-c2ccccc2)cs1` it is 22.2%.
As to `O=C(N/N=C/c1cc(Br)c(Br)o1)c1cccnc1`, the “hERG current change (%, negative = inhibition) at 10uM” value was -2.79%.
The result for `COc1ccc(C(=O)C2CCCN(C(=O)C3=CCCC3)C2)c(C)c1` (centres unmarked) reads -2.27%; that for `COC(=O)c1ccc(Oc2cc(C)nc(NCc3ccccc3)n2)cc1`, 4.53%.
With `COc1ccc(C(=O)OCC(=O)Nc2ccc(OC(F)F)cc2)c(OC)c1`, the “hERG current change (%, negative = inhibition) at 10uM” value is -33.9%.
The result for `Cc1cc(C)c(OCC(=O)OCC(=O)N2CCCc3ccccc32)c(C)c1` reads 16%.
The figure for `NC(=O)c1cc(S(=O)(=O)NCc2ccccc2)cs1` is 27.4%; for `COc1ccc2c(OC)cc(=O)n(C)c2c1` it is 3.11%; for `Cc1cc(C)nc(NC(=O)c2ccc([N+](=O)[O-])c(C)c2)n1` it is 7.43%.
The result for `CSc1ncc(/C=C2/C(=O)NC(=O)N(c3ccc(C(C)C)cc3)C2=O)cn1` reads 27.7%.
For the compound `CCCCN(CC)CCNC(=O)c1cc2c(=O)[nH]c3ccc(C)cc3c2s1`, the “hERG current change (%, negative = inhibition) at 10uM” value is reported as -1.34%.
The figure for `CC(=O)c1ccc(N2CCN(C(=O)CCNC(=O)Cn3ccc4ccccc4c3=O)CC2)cc1` is 17.5%.
The figure for `COCC(=O)Nc1nc2ccc(C)cc2s1` is 10.4%; for `CC1CCc2c(sc3nc(CSc4nnnn4C)[nH]c(=O)c23)C1` (centres unmarked) it is -6.88%.
The figure for `CCCc1cc(-c2n[nH]c(=S)n2CC)cs1` is 4.92%; for `CCCOc1ccc(CNC(=O)c2ccc3nc(N4CCOCC4)sc3c2)cc1` it is 10.4%.
Consider `Cc1ccc(C(=O)COc2ccccc2C(=O)Nc2ccccc2)cc1`, for which the “hERG current change (%, negative = inhibition) at 10uM” value was determined as 12.1%.
The figure for `CC(C)(C)n1nnnc1C(c1cccs1)N(Cc1cccnc1)Cc1ccco1` (centres unmarked) is -45.9%.
On to `COc1ccc(OC)c(/C=N/Nc2nc(C)cc(=O)[nH]2)c1`, for which the “hERG current change (%, negative = inhibition) at 10uM” value was 20.3%.
In the case of `COc1ccc(N2CCN(C(=O)c3ccc(CS(=O)c4cccc(C)c4)o3)CC2)cc1` (centres unmarked), the “hERG current change (%, negative = inhibition) at 10uM” value is listed as -43.1%.
As to `CS(=O)(=O)N(CC(=O)N1CCCC1)Cc1ccc(Cl)c(Cl)c1`, the “hERG current change (%, negative = inhibition) at 10uM” value is recorded as -0.845%.
For `Cc1ccc(C(=O)c2nocc2C(=O)c2cccs2)cc1`, the “hERG current change (%, negative = inhibition) at 10uM” value was -19.7%.
The result for `Cn1c(=O)n(C)c2cc([N+](=O)[O-])c(N3CCN(C(=O)c4ccccc4Br)CC3)cc21` reads -70.6%; that for `CSC1=N/C(=C\c2ccc(C)s2)C(=O)S1`, 15.7%; that for `COc1ccc(Cl)cc1S(=O)(=O)n1c([N+](=O)[O-])cnc1C`, -35.9%.
As for `COc1ccc(C(=O)Nn2c(SCC(=O)NC3CCCC3)nc3ccccc3c2=O)cc1`, the “hERG current change (%, negative = inhibition) at 10uM” value is reported as -9.11%.
Regarding `CCCOc1ccc(N2C(=O)CC(N(O)c3ccccc3)C2=O)cc1` (centres unmarked), the “hERG current change (%, negative = inhibition) at 10uM” value came to 13.1%.
Take `COC(=O)C(C)N(c1ccc(C)cc1)S(=O)(=O)c1c(C)[nH]c(=O)[nH]c1=O` (centres unmarked): the “hERG current change (%, negative = inhibition) at 10uM” value is 1.72%.
The result for `Cc1cc(C)c(OCC(=O)Nc2cccc(O)c2)cc1C` reads 10.9%.
The figure for `CCc1ccc(N(C(=O)c2snc(C(N)=O)c2N)C(C(=O)NC2CCCC2)c2ccco2)cc1` (centres unmarked) is -11.4%; for `O=S(=O)(NCC(c1ccco1)N1CCN(c2ccccc2F)CC1)c1ccc2c(c1)OCCO2` (centres unmarked) it is 20.4%.
The result for `COC(=O)C1=C(c2ccccc2OCc2ccccc2)C[C@@H]2CC[C@H]1N2C(=O)NC1CCN(Cc2ccccc2)CC1` reads -21.6%; that for `CC(=NCc1ccc2c(c1)OCO2)c1c(O)n(Cc2ccccc2)c(=O)[nH]c1=O`, 2.69%; that for `Cc1ccc(N=Cc2nc(/C=C/c3cccc([N+](=O)[O-])c3)oc2O)cc1`, -2.61%.
Regarding `O=C(c1ccc(Cl)s1)N1CCCC1`, the “hERG current change (%, negative = inhibition) at 10uM” value is recorded as -0.0803%.
Take `O=C1CN(Cc2cc(=O)oc3cc4c(cc23)CCC4)CCN1`: the “hERG current change (%, negative = inhibition) at 10uM” value was -13.9%.
Take `OCC1(Cc2ccccc2)CCN(Cc2cnc(-c3ccc(Cl)cc3)nc2)CC1`: the “hERG current change (%, negative = inhibition) at 10uM” value is recorded as -47.1%.
For the compound `CC(C)(C)OC(=O)N1CCC(C(=O)N[C@H](Cc2ccccc2)C(=O)O)CC1`, the “hERG current change (%, negative = inhibition) at 10uM” value was 2.21%.
The figure for `CN(C)C(=S)Nc1ccc(S(=O)(=O)N2CCCCC2)cc1` is -25.2%.
The result for `COc1ccc(/C=N/NC(=O)CNC(=O)c2ccc3c(c2)OCCO3)c(C(=O)O)c1OC` reads 9.5%; that for `CCOc1ccccc1N(CC(=O)Nc1cccc2ccccc12)S(C)(=O)=O`, -10.5%.
